# Results: article PMC4336329 (PLoS ONE, 2015)
# About 14,000 (4.5%) of roughly 310,000 compounds showed an effect of 50% or more. The effect is printed as a negative number. This is one part of the list.
# Molecular target: human ether-à-go-go-related gene (hERG) potassium channel (human, UniProt Q12809)
# Experiment: primary screen, population patch clamp on CHO cells stably expressing hERG
# 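Further: peak tail current of the secondary pulse compared with the same well before compound.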
# Chain of human ether-à-go-go-related gene (hERG) potassium channel (Q12809 whole entry, looked up): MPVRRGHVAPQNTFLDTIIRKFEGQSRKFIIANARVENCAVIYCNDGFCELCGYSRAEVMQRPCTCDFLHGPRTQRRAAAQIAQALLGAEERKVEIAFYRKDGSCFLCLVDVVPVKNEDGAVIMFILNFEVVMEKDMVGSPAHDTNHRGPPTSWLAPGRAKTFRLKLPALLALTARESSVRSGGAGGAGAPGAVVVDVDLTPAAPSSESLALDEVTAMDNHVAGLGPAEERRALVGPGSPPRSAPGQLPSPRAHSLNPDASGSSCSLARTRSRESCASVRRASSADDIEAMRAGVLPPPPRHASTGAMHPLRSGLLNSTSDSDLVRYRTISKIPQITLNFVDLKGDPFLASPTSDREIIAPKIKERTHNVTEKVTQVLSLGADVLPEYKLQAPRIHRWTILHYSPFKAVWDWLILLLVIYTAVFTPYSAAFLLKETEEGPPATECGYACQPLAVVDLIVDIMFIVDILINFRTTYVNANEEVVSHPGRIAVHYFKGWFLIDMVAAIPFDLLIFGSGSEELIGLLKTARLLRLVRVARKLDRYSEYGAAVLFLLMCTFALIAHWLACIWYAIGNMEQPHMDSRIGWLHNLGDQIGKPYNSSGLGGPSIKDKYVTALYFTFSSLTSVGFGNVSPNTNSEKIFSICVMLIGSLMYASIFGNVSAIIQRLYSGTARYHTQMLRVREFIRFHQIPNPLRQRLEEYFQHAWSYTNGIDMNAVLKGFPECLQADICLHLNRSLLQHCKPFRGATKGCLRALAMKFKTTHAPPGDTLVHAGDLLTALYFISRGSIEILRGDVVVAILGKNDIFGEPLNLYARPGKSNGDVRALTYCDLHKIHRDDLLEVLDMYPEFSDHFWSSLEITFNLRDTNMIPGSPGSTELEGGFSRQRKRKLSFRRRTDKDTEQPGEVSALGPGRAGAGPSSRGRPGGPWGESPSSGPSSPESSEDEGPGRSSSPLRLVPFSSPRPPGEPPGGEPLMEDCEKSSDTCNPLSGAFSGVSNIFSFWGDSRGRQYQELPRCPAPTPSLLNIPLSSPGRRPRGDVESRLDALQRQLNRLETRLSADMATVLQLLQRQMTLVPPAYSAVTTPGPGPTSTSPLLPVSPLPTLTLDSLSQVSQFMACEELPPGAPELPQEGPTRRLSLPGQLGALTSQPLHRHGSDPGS
row,SMILES,"hERG current change (%, negative = inhibition) at 10uM"
1,Cn1c(SCC(=O)NC2CCCCC2)nnc1-c1cccnc1,7.47%
2,CC(=O)Nc1ccc(NC(=O)C(C)O/N=C/c2cccc([N+](=O)[O-])c2)cc1 (centres unmarked),-20.3%
3,Cc1onc(-c2c(F)cccc2Cl)c1-c1nnc(-c2cccc3ccccc23)o1,8.62%
4,COc1cc(NC(=O)c2cccs2)c(C(=O)OCC(=O)c2cc(C)n(-c3ccccc3)c2C)cc1OC,11.8%
5,Cc1ccc(S(=O)(=O)Nc2cc3c(cc2C#N)OCO3)cc1C(N)=O,17.1%
6,CCCc1cc(=O)[nH]c2nnc(SCC(=O)Nc3ccc(C(C)=O)cc3)n12,-6.09%
7,Cc1ccc(C)c(OCC(O)CN2CCC(Cc3ccccc3)CC2)c1.Cl (centres unmarked),-67.6%
8,Cc1nn(C(=O)CCC(=O)NCCc2ccccc2)c2ccccc12,27.2%
9,COc1ccccc1NC(=O)C1CCN(C(=O)c2ccc(C(C)(C)C)cc2)CC1,-37.8%
10,CCCc1cc(=O)n2[nH]c(SCc3ccc(Cl)cc3)nc2n1,19.2%
11,Cc1cccc(S(=O)(=O)Nc2nc3ccccc3nc2Nc2cccc(C(=O)O)c2)c1,15.9%
12,C/C(CC(C)C)=N/Nc1ccc([N+](=O)[O-])cc1[N+](=O)[O-],-17%
13,COc1ccc(C2=NOC(C(=O)NCc3cccs3)C2)cc1 (centres unmarked),11.1%
14,COc1ccccc1CNC(=O)Cn1cnnn1,14.5%
15,O=C(NCc1nnc(SCC(=O)N2CCCC2)o1)c1c(F)cccc1Cl,23.7%
16,CCn1c(C)nc2cc(S(=O)(=O)C(F)F)ccc21,-13.7%
17,O=C1C(Cl)=C(NC(=O)c2ccccc2)C(=O)C(Cl)=C1NC(=O)c1ccccc1,17.7%
18,C=CCn1c(Oc2cccc(C)c2)nc2c1c(=O)n(C)c(=O)n2C,-4.46%
19,O=C(Cc1ccccc1)Nc1ccc(C(=O)Nc2ccccc2C(=O)O)cc1,12.7%
20,Cc1cccc(C)c1NC(=O)CNC(=O)c1c(-c2ccccc2)noc1C,11.1%
21,CCNC(=S)NCCN1CCCCC1.Cl,18.8%
22,NC(=O)N/N=C/c1cn(-c2ccccc2)nc1-c1cccs1,-38.8%

row,SMILES,"hERG current change (%, negative = inhibition) at 10uM"
1,O=C(Nc1ccccc1)c1ccc2snnc2c1,10.3%
2,N#Cc1ccccc1Cn1cc(/C=C/[N+](=O)[O-])c2ccccc21,-2.44%
3,N#CC(CO)(Cc1ccc(OC(F)F)cc1)c1nc2ccccc2[nH]1 (centres unmarked),-52%
4,O=C(CSc1nnnn1-c1ccc(F)cc1)NC1CCCCC1,10.2%
5,COc1ccc(C(=O)c2ccccc2)c(OCC(=O)N(C)C)c1,8.31%
6,COc1ccc(C)cc1S(=O)(=O)N(CC(=O)Nc1cccc([N+](=O)[O-])c1)c1ccc(C)cc1,-2.47%
7,Cn1c(C(=O)OC(C(=O)NC2CCCCC2)c2cccnc2)cc2sccc21 (centres unmarked),-25%
8,CC(C)NC(=O)NC(=O)CSc1nnc(COc2ccccc2F)n1C(C)C1CC2CCC1C2 (centres unmarked),-3.12%
9,Cn1c(=O)c2c(nc(NN=C3CCCCC3)n2C)n(C)c1=O,19.1%
10,CCCCNC(=O)C1CCN(S(=O)(=O)N2CCOCC2)CC1,5.58%
11,CN(C)C(=C(C#N)C#N)N1CCN(c2ccc(Cl)cc2)CC1,-48.3%
12,CSc1cccc(CN2CCCC(CNC(=O)c3ccc(F)cc3)C2)c1 (centres unmarked),-74.1%
13,COC(=O)c1ccc(NC(=O)CSc2nncc3ccc(OC)c(OC)c23)cc1,-12.5%
14,COc1ccc(OC)c(NC(=O)c2ccc(NC(C)=O)cc2)c1,4.18%
15,c1ccc(Oc2nc(-c3cccnc3)nc3ccccc23)cc1,2.26%
16,CCCCn1c(=O)[nH]c(=O)c2c1nc(CN1C(=O)c3ccccc3S1(=O)=O)n2CCC,-32.2%
17,CCn1cnc2cc(NCc3cccc(OC)c3O)ccc21,-5.91%
18,Cc1cc(Cl)c2oc(C(=O)N(C)C(C)c3ccccn3)c(C)c2c1 (centres unmarked),-10.5%
19,CSc1cccc(CNC(=O)C2CCC(=O)N(Cc3cccc(C(F)(F)F)c3)C2)c1 (centres unmarked),-21%
20,COC(=O)C1=C(c2cccc(Cl)c2)C[C@@H]2CC[C@H]1N2C(=O)N1CCCC1,-11.2%
21,CCCCCN(C(=O)NC(=O)Nc1nncs1)S(C)(=O)=O,9.21%
22,O=C(c1cccnc1)N1CCN(C(=O)c2ccccc2F)CC1,-12.9%
